Measurements taken from PubChem BioAssay (NCI).
Where a structure was tested more than once in an assay, its records may differ in their call.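 Results are percent growth after 48 hours of single-concentration exposure. 100 means growth as in untreated cells, lower positive values show inhibition; negative values down to -100 show cell death.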 Some entries of the source have several records that differ or are many. This list holds those alone. How the source made its calls: active means growth percent below 10; inactive means the rest. There may be further records. These are repeated runs of one drug, at its own concentration, as given; one value stands for one run. Signs of the kind (2×) count equal records among those shown.

Tested on: RPMI-8226 leukemia
Assay: NCI-60 one-dose screen, 48 h (100 = growth as untreated, 0 = no growth, -100 = all killed)

Structure (SMILES): COc1cccc2c1C(=O)c1c(O)c3c(c(O)c1C2=O)C[C@@](O)(C(=O)CO)C[C@@H]3OC1CC(N)C(O)C(C)O1 (stereo not given in full)
- growth (0.25 µM, runs of 2009): active: 8.14, 3.09, 8.89, -4.96, -2.68% and inactive: 30.6, 28.2, 47.7, 80.9, 26.8, 35.3, 46.6, 21.6 (2×), 67.2, 59.5, 46.9, 44.6 (2×), 35.5, 33.8, 58.5, 59.9, 38.9, 35.2, 26.7, 33.9, 29.4 (2×), 32.9, 41.7, 54, 37.8, 31.9, 29.9 (2×), 31.3 (2×), 46.8, 53.9, 54.7, 36.4, 39.1, 33, 37.1 (2×), 27.5, 63.1, 65.4, 36, 20.9 (2×), 15.7, 24.6, 40.4, 53.3, 19.8, 28.9, 36.1, 65.7, 45.3, 40.9, 52.3, 48.7, 40.8, 38.1%
- growth (0.25 µM, runs of 2010): inactive: 34.6, 47.4, 50.1, 47.6, 34.3, 53.9, 47.2, 38.4, 44.5, 45.5, 29.8 (2×), 41.1, 53.6, 57.4, 30.8, 40.4, 44.8, 28.1, 29.9, 52.8, 31.4, 29.4, 45.3, 26.9, 39.1, 45.2, 55.7, 14.2, 24.2, 50.8, 37, 28.9, 50.9, 35.7, 37.7, 37.1, 49.1, 37.3, 59.9, 45.4, 43.8 (2×), 58.8, 66.7, 57, 42.3, 48.2, 40% and active: -5.36%, -1.28%, 5.61%
- growth (0.25 µM, runs of 2011): inactive: 31.8, 24, 31.9 (2×), 34.2, 21.5, 49.2, 55.1, 48.9, 12.2, 64.4, 43.5, 44.1 (2×), 54.3, 54.1, 102, 63.2, 69.6, 57.6, 65.3, 35.5, 50.3, 62, 66, 44.3, 45.3, 52.7, 65.1, 45.5 (2×), 40.3, 38.5, 69.7, 41.4, 50.7, 30.4, 33.6, 27.3, 64.6, 52.9 (2×), 55.3, 50.2, 44.6, 43.8, 50.5, 24.2, 38.2, 34.5, 47.6, 51.2, 45.7, 41.6, 39.7%
- growth (0.25 µM, runs of 2012): inactive: 43.8, 21.3 (2×), 49.9 (2×), 64.4, 54.4, 76.1, 30.4, 39.2, 70.9, 56.7, 33.9, 28.2, 27.6, 43.7, 21.9, 14.8, 14.5, 10.9, 24.1, 21.1, 15.2, 11.1, 23.6, 38, 34.9, 35.5, 38.1, 27.3, 25.8 (2×), 26.1, 29, 40.8, 41, 33.7, 34.6, 23.3, 31.3 (2×), 19.8, 33 (2×), 29.5, 77.6, 53.1, 42.5, 35.6 (2×), 30, 68.1, 48.5, 51.8, 39, 33.5, 27.9, 80.5, 44.1, 61.8, 62.8, 37, 28.3, 30.6, 19, 16.1, 33.1, 23.9, 23, 35.1% and active: 8.37%, 5.54%, 2.34%
- growth (0.25 µM, runs of 2013): inactive: 35.1, 23.1, 32.1, 38.8, 34.2, 14.5, 44.6, 36.1, 50.4, 58.9, 86.7, 58.3, 38.7, 55.4, 66.6, 40, 43.9, 49.2, 65.6, 41.1, 22.5, 32.7, 27.3 (2×), 21.1, 32.6, 24.9, 14.4, 10.4, 27.6, 60.1, 48.2 (2×), 42.2, 27.4, 33.8, 64.9, 29.2, 20.4, 86.4, 81.1, 46.1, 62.2, 57, 53.6, 34.9, 45.5, 39.3, 16.5, 22.7, 34.3, 46.5, 63.8, 33.9, 29.6, 45.6, 46.7, 26.7, 29.3, 33, 46.4, 49.6, 37.7, 29.5, 36.3, 29.4, 49.5, 35.7, 22.8, 24.6, 45.7, 31.4% and active: 7.44%, -11.5%
- growth (0.25 µM, runs of 2014): inactive: 35.4, 25.4 (2×), 34.7, 22.9, 25.9 (2×), 34.9, 30.8, 27.4, 20.5, 14.7, 31.9, 17.1, 38.7, 17.2, 46.2, 56.7, 40.3 (3×), 41.4 (3×), 25.2, 29.7, 35.9, 37.4, 27.5, 41.7, 33.1, 28.8, 34.1, 27.9, 29.6, 27.7, 24.9 (2×), 27.8, 29.5, 48 (3×), 42.3, 38.9, 25.6, 42.1, 39.4, 31.1, 52.5, 48.6, 49.2, 53.6, 53.3, 47.5, 50.4 (2×), 46.1, 46, 57.9, 53.5, 43.6, 39.1, 38.5, 43.1, 38.2, 49.5 (2×), 52.1, 51.3, 49, 48.5, 32.7, 48.8, 51.4, 49.8, 39.8, 30.5, 32.5% and active: -3.19%
- growth (0.25 µM, runs of 2015): inactive: 53, 46.1, 39, 45.4, 44.5, 47.5, 43.7, 40.6 (2×), 38, 42.2, 46 (2×), 45.1, 24.8, 22.2, 21.4, 26.5, 25, 31.8, 30.6, 26.1, 29.4 (2×), 27.5, 13, 19.7, 43, 44.3, 32.2 (2×), 23.5 (2×), 31.1, 28.5 (2×), 14.3, 22.9 (2×), 57.5, 54.9, 59.7, 19.5, 33.5 (2×), 35.3, 46.5, 56.3, 39.8 (2×), 33.7, 36.1, 20, 22.7, 27.7, 50.9, 17.4, 19.9, 23.6, 26.8, 14.1, 33.3, 34.9, 32.8, 44.8, 62.9, 63.6, 41.1, 47.6, 37.7, 44.1, 30.9, 39.2, 31, 39.5, 52.7, 51, 48.2, 48.9% and active: 8.21%
- growth (0.25 µM, runs of 2016): inactive: 34.9 (2×), 37, 32.4 (2×), 40.1 (2×), 48.5, 40.6, 31.8, 25.4, 36.2, 39.2, 28.3, 27.1, 43.7, 29, 27.5, 41.1, 48.2, 28, 43.9 (2×), 49.1, 32.7, 30.1, 45.3, 31.9, 29.6, 22.6, 34.1, 33.4, 26.8, 26.4, 10, 12.4, 23.2, 20.8, 17.3, 45.8, 50.7 (2×), 28.5, 49 (2×), 46.1, 29.7 (2×), 24.8, 46.2, 46.6, 52.8 (2×), 43.3, 56.3, 56.4, 30.9, 43.1 (2×), 52.7, 52.2, 42.5, 43.2, 61.6, 47.5, 55.9, 73, 68.8, 49.2, 54.6, 46.4, 46.8, 46, 44.5, 47.4, 37.8, 29.9, 37.4, 53.1, 42.2%
- growth (0.25 µM, runs of 2017): inactive: 40.6, 37, 33.7, 31, 24.9, 19.9 (2×), 16.8, 20.9 (3×), 26.8 (2×), 33 (2×), 25.7, 16.9, 15, 29.4 (3×), 27.2 (2×), 28.3, 22.6 (2×), 23.2, 26.5 (2×), 27.1, 22.4, 19.5, 19.2, 22.2, 19.7, 27, 23.1, 27.9, 26.1, 34.3, 33.9 (2×), 26.9, 28.2, 19.6 (2×), 25.5, 25.4 (2×), 32.9, 30.7, 33.8, 13, 24.7 (2×), 26.2, 31.4, 16.2, 22.3, 15.6, 22, 30.1, 21.9 (2×), 23, 28.8, 19.3, 23.9, 20.8, 35.5, 33.6, 34.7 (2×), 31.3, 31.5, 36.4, 32.5, 31.1, 48.3, 36, 24.3, 13.7% and active: 1.21%
- growth (0.25 µM, runs of 2018): inactive: 41.1 (2×), 43, 25.7, 26.4, 27.3, 34.8 (2×), 38.9, 32.1, 43.9, 38.3, 38.1, 48.7, 38.8, 29.9, 36.2, 17.1, 42.9, 29.2, 25, 19.1, 26.1, 43.2, 47.5, 53.8, 47.7, 62.6, 65.1, 43.8 (2×), 48.3, 52.8, 44.5, 54.5, 53.3, 59, 72.4, 68.1, 65.7, 61.7 (2×), 60.6, 63.3, 63.9, 36.4, 23, 12.5% and active: 6.24%
- growth (0.25 µM, runs of 2019): inactive: 12.2, 30.1, 30, 28.3, 30.7, 38.9, 25.7, 20.2, 32.7, 39.9, 36.3, 45.6, 21.2, 24.8, 34.5, 26.3, 19, 33.9, 49.3, 48.6, 37.4, 42.1, 24.3, 17.4, 34.9, 29.4, 33.2, 23.4, 25, 26.2, 35.6 (2×), 34.7, 33.5, 52.5, 31.4, 26.4, 37.1, 43.2, 54.9, 32.5, 18, 21.6, 15.1% and active: 9.41%
- growth (0.25 µM, runs of 2020): active: -0.901, -1.04, 4.78, -0.928, 8.41% and inactive: 28.3, 21.5, 18.7, 24.8, 26.8, 10.9, 11.2, 24, 14.3, 31, 31.4, 40.3, 21.1, 45.5, 41.3, 37.8, 18.9, 27.2, 13, 16.7%
- growth (0.25 µM, runs of 2021): inactive: 17, 24.4, 22, 36, 33, 31.8, 28.9, 35.4 (2×), 26.7 (2×), 30, 19.2 (2×), 28.4 (2×), 21.7, 21.8, 39, 33.3, 30.1, 29.7, 22.7, 21, 32.3, 25, 26.2, 34.5, 27.8, 32.1, 19.5, 27.5, 39.8, 29.4, 26.5, 24.1, 25.3, 31, 33.6, 49.9, 42.1, 46.4, 54.6, 23.9, 25.5, 25.7, 16.7, 18, 27.3, 10.6, 12.3, 31.9, 22.9, 21.9%
- growth (0.25 µM, runs of 2022): active: 2.28, 6.62, 7.08, 9.59% and inactive: 33.9 (2×), 43.1, 17.6, 18.2, 32.9, 31.1, 37.8, 41.3, 24.8, 16.7, 12.2, 50.8, 58, 19.7, 51.2, 43.6, 65.1, 10, 13.2, 27.4, 26.8, 24.6%
- growth (25 µM, runs of 1991): active: -14.5, -23.8, -26, -5, -27.9, -34.3, -10.6, -12.3, -46.8, -32.7, -16.5, 3.93, -4.91, 8.26, -26.7, -9.5, -45.2%
